Laboratory results from PMC4336329 (PLoS ONE, 2015).
The campaign covered roughly 310,000 compounds. About 14,000 (4.5%) showed an effect of 50% or more. Effects have a minus sign here. The list shows a part of the results.

target: human ether-à-go-go-related gene (hERG) potassium channel (human, UniProt Q12809); experiment: primary screen, population patch clamp on CHO cells stably expressing hERG
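Also: peak tail current of the secondary pulse compared with the same well before compound.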

human ether-à-go-go-related gene (hERG) potassium channel, sequence (Q12809 whole entry, looked up): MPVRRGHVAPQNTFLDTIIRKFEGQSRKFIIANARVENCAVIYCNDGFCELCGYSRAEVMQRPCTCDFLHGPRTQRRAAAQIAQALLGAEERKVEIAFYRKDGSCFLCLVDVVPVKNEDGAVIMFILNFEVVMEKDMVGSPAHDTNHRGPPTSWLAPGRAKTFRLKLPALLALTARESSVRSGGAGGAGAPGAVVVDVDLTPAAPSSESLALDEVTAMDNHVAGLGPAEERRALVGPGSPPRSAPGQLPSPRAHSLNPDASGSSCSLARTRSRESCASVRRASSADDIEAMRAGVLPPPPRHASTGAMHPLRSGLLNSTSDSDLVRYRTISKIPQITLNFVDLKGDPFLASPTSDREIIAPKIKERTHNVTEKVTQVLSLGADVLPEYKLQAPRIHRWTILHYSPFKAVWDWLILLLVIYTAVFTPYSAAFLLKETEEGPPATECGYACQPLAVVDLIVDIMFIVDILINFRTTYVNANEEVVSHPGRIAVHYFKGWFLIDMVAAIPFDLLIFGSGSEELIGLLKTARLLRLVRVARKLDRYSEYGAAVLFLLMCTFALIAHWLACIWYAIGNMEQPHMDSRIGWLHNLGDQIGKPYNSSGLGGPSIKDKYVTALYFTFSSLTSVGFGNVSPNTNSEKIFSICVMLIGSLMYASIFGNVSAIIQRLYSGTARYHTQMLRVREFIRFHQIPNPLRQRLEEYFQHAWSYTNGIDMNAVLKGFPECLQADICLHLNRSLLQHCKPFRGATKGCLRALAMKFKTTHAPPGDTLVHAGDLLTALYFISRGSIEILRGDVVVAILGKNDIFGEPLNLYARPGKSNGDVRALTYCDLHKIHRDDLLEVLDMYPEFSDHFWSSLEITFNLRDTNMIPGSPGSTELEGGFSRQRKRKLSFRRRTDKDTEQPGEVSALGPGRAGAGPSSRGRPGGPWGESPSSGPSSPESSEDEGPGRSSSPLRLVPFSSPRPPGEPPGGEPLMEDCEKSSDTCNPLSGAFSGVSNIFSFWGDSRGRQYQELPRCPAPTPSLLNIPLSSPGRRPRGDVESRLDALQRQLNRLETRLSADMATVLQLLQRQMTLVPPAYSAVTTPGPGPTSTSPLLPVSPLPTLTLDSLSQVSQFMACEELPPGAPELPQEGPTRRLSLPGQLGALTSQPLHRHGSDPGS

Row | Compound | hERG current change (%, negative = inhibition) at 10uM
1 | O=c1[nH]c2cc3c(cc2cc1C(c1nnnn1C1CCCCC1)N1CCSCC1)OCCO3 (centres unmarked) | -2.71%
2 | CCC1CCCCN1CCCNC(=O)C1CCC(=O)N1Cc1ccc(C)cc1 (centres unmarked) | 5.79%
3 | CN(CCNC(=O)c1cn(C)c2ccc(S(=O)(=O)N3CCCC3)cc2c1=O)CCc1ccccc1 | -41.2%
4 | CC(NC(=O)c1ccco1)C(=O)N1CCN(S(=O)(=O)c2ccccc2C#N)CC1 (centres unmarked) | -8.15%
5 | CC(OC(=O)/C=C/c1cccc(F)c1)C(=O)NC1CCCCC1C (centres unmarked) | 14.1%
6 | Cc1ncoc1C(=O)N1CCc2c([nH]c3ccccc23)C1C(C)(C)C (centres unmarked) | -65.3%
7 | CCOC(=O)c1c(C)[nH]c(C2=NNC(=NC(C)COC)SC2)c1C (centres unmarked) | 12.6%
8 | Cc1ccc(C(C)C)c(OCC(=O)N2CCN(Cc3nc4cc([N+](=O)[O-])ccc4n3C)CC2)c1 | -65.8%
9 | O=C(Nc1nnc(SCc2ccc(F)cc2)s1)c1cccnc1Cl | 2.48%
10 | N#Cc1ccc(C(=O)Nc2nnc(-c3cccs3)o2)cc1 | 5.28%
11 | COc1ccc(/C=C/C(=O)NCC(=O)N/N=C/c2cccs2)cc1 | 0.0661%
12 | CC1CC(=O)N(CC(=O)Nc2ccc(F)cc2F)c2ccccc2S1(=O)=O (centres unmarked) | -10.7%
13 | Cc1nc2cc(C(F)(F)F)ccc2n1C1CCN(Cc2nnnn2CCc2ccccc2)CC1 | -68.4%
14 | COc1ccc(-c2ccnc3c(C(=O)O)cnn23)cc1 | 20.6%
15 | Cc1cc2c3ccccc3ncn2n1 | 20.9%
16 | CCCC(=O)NC1C2CC3CC(C2)CC1C3 (centres unmarked) | 7.21%
17 | O=C(Cn1cnc2c(nnn2-c2ccccc2)c1=O)NCCc1ccccc1 | -22.7%
18 | COc1ccc(N=CC2=C(O)c3ccccc3C2=O)cc1 | 11.1%
19 | CNC(=S)N(CCO)Cc1cc2cc3c(cc2[nH]c1=O)OCCO3 | 21.2%
20 | COc1cccc2[nH]c3c(=O)n(CCCN4CCOCC4)cnc3c12 | -7.06%
21 | CCOC(=O)c1cnc2nc[nH]n2c1=O | 9.75%
22 | O=C(NN1C(=O)c2ccccc2C1=O)c1ccccc1[N+](=O)[O-] | 7.17%
23 | O=C(Nc1ccccn1)c1ccc([N+](=O)[O-])cc1Cl | -3.15%

Row | Compound | hERG current change (%, negative = inhibition) at 10uM
24 | CCN(CC)C(=O)COc1ccc2c3c(c(=O)oc2c1)CCCC3 | -12.8%
25 | CC(C)CC(=O)NCCCCc1ccccc1 | -12.6%
26 | Cc1ccccc1NC(=O)NCCCCc1ccccc1 | -0.346%
27 | O=C(CCNS(=O)(=O)c1ccc(Br)cc1)NCc1ccc(Cl)cc1 | 6.61%
28 | Cc1csc2c(N3CCN(C(=S)Nc4ccc(C(F)(F)F)cc4)CC3)ncnc12 | -9.35%
29 | Cc1ccc(S(=O)(=O)N2CCN3CCCC3C2)cc1 (centres unmarked) | -6.76%
30 | Cl.O=C(c1ccc(Cn2ccc([N+](=O)[O-])n2)cc1)N1CCN(Cc2ccccc2)CC1 | -56.1%
31 | COc1ccc(C)cc1Nc1nc(N)c2ccccc2n1.Cl | -12.8%
32 | O=C(O)CCCN1C(=O)C(=O)/C(=C(/O)c2ccc(Cl)cc2)C1c1ccccc1 (centres unmarked) | 10.3%
33 | Cc1ccc(OCC(=O)NNC(=O)[C@@H]2CCCC[C@@H]2C(=O)O)c(Br)c1 | 14.1%
34 | CCCCC(c1nnnn1CCOC)N1CCN(Cc2ccccc2)CC1.Cl (centres unmarked) | -46.9%
35 | CCc1cc(CNC(=O)CCc2nnc(Cc3cccc(C)c3)o2)on1 | 10.2%
36 | COC(=O)c1cc(C(=O)NCc2ccc3c(c2)OCO3)cc([N+](=O)[O-])c1 | -3.75%
37 | CC(=O)c1sc(NCc2ccccc2)nc1C | 18.6%
38 | O=C(CCc1nc2ccccc2[nH]1)Nc1ccccc1F | 9.18%
39 | CCOc1ccc(-c2nc(CSc3nnc(N)s3)cs2)cc1 | 8.94%
40 | CCC(CC)C(=O)NC1CCSC1=O (centres unmarked) | 14.9%
41 | O=C(c1ccc(-c2cc3ccccc3oc2=O)cc1)N1CCN(c2ccc(Cl)cc2[N+](=O)[O-])CC1 | 2.07%
42 | CCN(C(=O)COc1cccc2cccnc12)C1CCS(=O)(=O)C1 (centres unmarked) | 10.8%
43 | CCN(c1nc(N)c(C(=O)N=C(N)N)nc1Cl)C(C)C | -38.9%
44 | CCC(CC)NC(=O)Nc1ccc(F)cc1F | 7.35%
45 | COCCn1c(SCc2cccc([N+](=O)[O-])c2)nc2ccccc2c1=O | -16.2%
46 | C=CCn1c(Cc2ccc(OCC)cc2)nnc1SCC(N)=O | 10%

Row | Compound | hERG current change (%, negative = inhibition) at 10uM
47 | O=C(NC(=S)Nc1ccc(Oc2ccc(Cl)cc2)cc1)c1ccccc1 | 10.7%
48 | Cc1ccc2ccc(C(Nc3ccccn3)c3ccccc3)c(O)c2n1 (centres unmarked) | -3.72%
49 | C/C(CC(=O)Nc1ccccn1)=N\NC(=O)Cc1cccc2ccccc12 | 1.01%
50 | Clc1cccc(Cl)c1-c1noc(-c2ccno2)n1 | -6.35%
51 | O=C(NNC(=O)c1ccccc1C(=O)O)c1ccc(-c2ccccc2)cc1 | -3.52%
52 | CC(CN1CCN(Cc2ccccc2)CC1)c1ccccc1.O=C(O)C(=O)O (centres unmarked) | -14%
53 | CC(=O)N1CCN(c2ccc(NC(=O)c3ccc(Cl)c([N+](=O)[O-])c3)cc2)CC1 | -10.9%
54 | O=C(CCNS(=O)(=O)c1ccc(Cl)cc1)N1CCC2(O)CCCCC2C1 (centres unmarked) | 1.08%
55 | COc1cccc(-n2c(Cc3cc(=O)[nH]c(=O)[nH]3)nnc2SCC(=O)N2CCC(C)CC2)c1 | 26.2%
56 | Cc1cc(C)cc(NC(=O)C2CCN(S(=O)(=O)c3ccc4c(c3)NC(=O)C(C)S4)CC2)c1 (centres unmarked) | 8.79%
57 | Cc1ccc(N2C(=O)c3cccc4cccc(c34)C2=O)cc1 | 16.7%
58 | O=C(Nc1ccc(F)cc1)N1CCCC(c2nc3c(nnn3Cc3ccccc3Cl)c(=O)[nH]2)C1 (centres unmarked) | 16.7%
59 | Cc1nnc(C)c2c(C)n(C(C)c3ccccc3)c(C)c12 (centres unmarked) | -20.7%
60 | CCCc1c(C)nc(N2CCN(c3cccc(OC)c3)CC2)[nH]c1=O | 17.4%
61 | CCOC(=O)C1CCN(c2c(N3CCCCCC3)c(=O)c2=O)CC1 | -10.5%
62 | Cc1ccccc1Cn1c(C)nc2ccccc21 | 8.3%
63 | Cc1ccc(C(=O)N/C(=C\c2cccnc2)c2nc3ccccc3[nH]2)cc1 | -19.7%
64 | CCOC(=O)COc1ccc2c(=O)c(-c3ccc(OC)c(OC)c3)c(C(=O)OCC)oc2c1 | -15.7%
65 | Cc1ccc(NC(=O)CSc2nnc(-c3ccncc3)n2C)cc1S(=O)(=O)N1CCOCC1 | 0.576%
66 | Cc1cc(C)n(/N=C/c2cc([N+](=O)[O-])ccc2O)c(=O)c1 | 18.2%
67 | O=C1CCCN1c1cc(Cl)cc(Cl)c1 | 4.18%
68 | CCCCN(CC)CCNC(=O)Cn1cc2c(n1)-c1c(oc(C(=O)N3CCCC3)c1C)CC2 | -27.9%
69 | O=C(COC(=O)/C=C/c1ccc(S(=O)(=O)N2CCOCC2)cc1)NC1CCCCCCC1 | 32.2%

Row | Compound | hERG current change (%, negative = inhibition) at 10uM
70 | CCOc1cccc(SCc2noc(C(=O)NCCOC)c2C(=O)O)c1 | -3.55%
71 | Cc1nn(C)c(Cl)c1C(=O)NC(C(=O)O)c1ccccc1 (centres unmarked) | -14.7%
72 | COCCCNC(=O)c1ccc2c(=O)n(Cc3ccc(OC)cc3)c(=O)[nH]c2c1 | 1.04%
73 | c1ccc(CN(Cc2ccccc2)c2c3c(nc4ncnn24)CCC3)cc1 | -31.1%
74 | CC(=O)N1CCN(c2ccc(Oc3ccc([N+](=O)[O-])c(C(F)(F)F)c3)cc2)CC1 | -59.9%
75 | COC(=O)c1cc(OC)c(OC)cc1NC(=O)c1c(-c2ccccc2)noc1C | -6.47%
76 | COc1ccc(C2c3[nH]c4ccccc4c3CCN2C(=O)c2cc3ncccn3n2)c(F)c1 (centres unmarked) | -1.88%
77 | O=C(O)CSc1nc(-c2ccccc2)nc2c1CCCC2 | 12.8%
78 | N#Cc1nc(COc2cccc(Cl)c2)oc1NCc1ccco1 | -16.8%
79 | CCOc1ccc(S(=O)(=O)NCCC(=O)OCC(=O)c2ccc(NC(C)=O)cc2)cc1 | 1.73%
80 | CCN1C(=O)c2cccc3c(S(=O)(=O)NCCCN4CCOCC4)ccc1c23 | -12.8%
81 | CCCOc1ccc(C(=O)NCC(c2cccs2)N(C)C)cc1 (centres unmarked) | -25.3%
82 | O=S(=O)(NCc1cccs1)c1ccccc1Cl | -10.1%
83 | CCOC(=O)C(C)Oc1cccc2c(=O)n(CC(=O)N3CCCc4ccccc43)ccc12 (centres unmarked) | 17.5%
84 | COc1ccccc1[N+](=O)[O-] | 18.6%
85 | COCCn1nnnc1C(c1ccc(Cl)cc1)N1CCN(C(=O)c2ccco2)CC1.Cl (centres unmarked) | -22.4%
86 | CCCCN(CC(=O)NC1CCCC1)C(=O)C(=O)Nc1ccc2c(c1)OCCO2 | 5.61%
87 | COc1ccccc1/C=C/C=N/NC(=O)c1ccccn1 | -5.65%
88 | CCCCN(CCCC)C(=S)NC(=O)c1ccccc1Cl | 12.2%
89 | Cc1ccc(C(=O)Cn2nnc3c(sc4nc5c(c(-c6ccccc6)c43)CCC5)c2=O)cc1 | 15.1%
